No constants are given. Whether binding was seen depends on the method and setting. For some of these results: In cells and extracts the contact can be indirect. Tags and fused reporters may be left off the sequences shown. Some binding calls cover weakened binding; strength is not graded here.
T1: IDN2-6xMyc (Arabidopsis thaliana) (UniProt Q8VZ79)
T1 sequence: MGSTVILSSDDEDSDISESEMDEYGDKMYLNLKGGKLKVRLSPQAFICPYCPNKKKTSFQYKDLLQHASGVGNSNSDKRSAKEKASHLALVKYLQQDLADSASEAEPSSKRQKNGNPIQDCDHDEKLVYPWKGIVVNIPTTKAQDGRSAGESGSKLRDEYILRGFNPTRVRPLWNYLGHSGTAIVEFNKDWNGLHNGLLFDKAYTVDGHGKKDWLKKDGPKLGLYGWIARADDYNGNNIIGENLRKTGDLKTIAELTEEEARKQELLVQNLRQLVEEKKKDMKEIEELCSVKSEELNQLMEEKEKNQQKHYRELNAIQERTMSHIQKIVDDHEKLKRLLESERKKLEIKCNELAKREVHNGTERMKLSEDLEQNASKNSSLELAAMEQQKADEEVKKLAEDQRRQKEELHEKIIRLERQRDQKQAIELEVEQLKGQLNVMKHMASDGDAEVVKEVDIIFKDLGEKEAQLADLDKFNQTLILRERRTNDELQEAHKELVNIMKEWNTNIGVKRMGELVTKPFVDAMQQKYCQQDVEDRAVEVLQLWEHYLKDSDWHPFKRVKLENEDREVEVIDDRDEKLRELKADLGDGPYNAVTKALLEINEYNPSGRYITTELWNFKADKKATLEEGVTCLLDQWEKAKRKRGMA

By UniProt entry, the sequences of proteins in these tests, tags left out.
UniProt Q94A79: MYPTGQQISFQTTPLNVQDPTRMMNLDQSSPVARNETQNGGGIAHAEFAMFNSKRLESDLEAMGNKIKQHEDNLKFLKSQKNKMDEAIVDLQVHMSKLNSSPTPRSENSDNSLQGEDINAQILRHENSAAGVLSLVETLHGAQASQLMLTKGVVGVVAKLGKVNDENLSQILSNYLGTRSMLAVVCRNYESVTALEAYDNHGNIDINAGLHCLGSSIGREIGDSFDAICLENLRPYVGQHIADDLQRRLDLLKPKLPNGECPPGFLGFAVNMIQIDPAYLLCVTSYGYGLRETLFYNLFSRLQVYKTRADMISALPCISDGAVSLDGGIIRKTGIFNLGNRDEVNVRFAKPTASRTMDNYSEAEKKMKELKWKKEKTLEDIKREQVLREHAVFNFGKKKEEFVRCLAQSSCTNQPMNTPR

T2: IDN2, yeast two-hybrid fusion (Arabidopsis thaliana) (UniProt Q8VZ79)
T2 sequence: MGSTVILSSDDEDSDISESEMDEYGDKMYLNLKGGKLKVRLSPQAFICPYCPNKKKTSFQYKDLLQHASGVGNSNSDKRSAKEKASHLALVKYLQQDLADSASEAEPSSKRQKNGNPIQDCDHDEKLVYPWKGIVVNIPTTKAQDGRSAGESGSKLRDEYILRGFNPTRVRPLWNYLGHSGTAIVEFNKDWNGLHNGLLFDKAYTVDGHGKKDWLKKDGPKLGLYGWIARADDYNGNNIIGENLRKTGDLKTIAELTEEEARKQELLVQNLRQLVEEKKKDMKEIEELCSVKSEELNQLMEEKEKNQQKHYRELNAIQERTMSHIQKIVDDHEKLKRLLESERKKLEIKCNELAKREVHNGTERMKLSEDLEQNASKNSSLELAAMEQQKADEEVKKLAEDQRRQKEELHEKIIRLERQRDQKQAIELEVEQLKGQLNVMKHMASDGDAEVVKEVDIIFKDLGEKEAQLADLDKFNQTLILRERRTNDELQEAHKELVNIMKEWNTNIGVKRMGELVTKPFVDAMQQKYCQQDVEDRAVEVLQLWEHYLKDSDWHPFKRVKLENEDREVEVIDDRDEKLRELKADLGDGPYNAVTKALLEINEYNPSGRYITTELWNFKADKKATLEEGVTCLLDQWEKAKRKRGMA

T3: IDN2E600Q, yeast two-hybrid bait (Arabidopsis thaliana) (UniProt Q8VZ79)
T3 sequence: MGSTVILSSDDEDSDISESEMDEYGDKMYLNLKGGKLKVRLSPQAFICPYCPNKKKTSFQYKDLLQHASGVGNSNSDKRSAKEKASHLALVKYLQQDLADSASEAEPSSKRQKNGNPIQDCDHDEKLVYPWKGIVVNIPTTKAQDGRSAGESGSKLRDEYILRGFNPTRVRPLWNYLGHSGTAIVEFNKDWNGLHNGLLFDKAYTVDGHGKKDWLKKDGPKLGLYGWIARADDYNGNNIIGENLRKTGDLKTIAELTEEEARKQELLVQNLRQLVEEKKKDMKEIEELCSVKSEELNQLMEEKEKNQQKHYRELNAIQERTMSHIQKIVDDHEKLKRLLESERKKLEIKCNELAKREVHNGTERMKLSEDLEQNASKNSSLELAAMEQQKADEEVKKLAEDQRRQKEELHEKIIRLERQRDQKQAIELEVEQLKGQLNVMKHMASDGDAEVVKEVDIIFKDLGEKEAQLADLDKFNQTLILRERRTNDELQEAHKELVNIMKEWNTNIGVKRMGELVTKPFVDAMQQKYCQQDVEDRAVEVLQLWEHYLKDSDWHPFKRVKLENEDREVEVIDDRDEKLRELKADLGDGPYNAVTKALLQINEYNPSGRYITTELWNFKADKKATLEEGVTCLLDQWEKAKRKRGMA

T4: IDN2W616A, yeast two-hybrid bait (Arabidopsis thaliana) (UniProt Q8VZ79)
T4 sequence: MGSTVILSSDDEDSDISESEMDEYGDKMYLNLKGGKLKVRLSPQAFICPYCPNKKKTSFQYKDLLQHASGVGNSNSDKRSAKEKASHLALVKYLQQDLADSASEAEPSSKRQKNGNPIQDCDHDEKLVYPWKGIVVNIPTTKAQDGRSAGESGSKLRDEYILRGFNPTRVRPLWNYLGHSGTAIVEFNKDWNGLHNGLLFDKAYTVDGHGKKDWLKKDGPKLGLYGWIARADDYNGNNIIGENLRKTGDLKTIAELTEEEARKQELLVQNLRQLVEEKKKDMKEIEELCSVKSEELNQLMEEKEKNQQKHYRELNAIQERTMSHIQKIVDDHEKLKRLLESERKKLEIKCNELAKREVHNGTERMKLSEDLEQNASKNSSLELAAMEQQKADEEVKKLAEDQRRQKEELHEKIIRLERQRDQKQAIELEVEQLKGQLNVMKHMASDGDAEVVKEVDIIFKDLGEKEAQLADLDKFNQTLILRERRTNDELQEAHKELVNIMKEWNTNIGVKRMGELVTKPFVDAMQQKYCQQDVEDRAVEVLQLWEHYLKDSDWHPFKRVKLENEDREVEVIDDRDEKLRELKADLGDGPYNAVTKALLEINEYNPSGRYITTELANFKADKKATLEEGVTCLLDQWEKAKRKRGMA

T5: IDP1, yeast two-hybrid fusion (Arabidopsis thaliana) (UniProt Q9S9P3)
T5 sequence: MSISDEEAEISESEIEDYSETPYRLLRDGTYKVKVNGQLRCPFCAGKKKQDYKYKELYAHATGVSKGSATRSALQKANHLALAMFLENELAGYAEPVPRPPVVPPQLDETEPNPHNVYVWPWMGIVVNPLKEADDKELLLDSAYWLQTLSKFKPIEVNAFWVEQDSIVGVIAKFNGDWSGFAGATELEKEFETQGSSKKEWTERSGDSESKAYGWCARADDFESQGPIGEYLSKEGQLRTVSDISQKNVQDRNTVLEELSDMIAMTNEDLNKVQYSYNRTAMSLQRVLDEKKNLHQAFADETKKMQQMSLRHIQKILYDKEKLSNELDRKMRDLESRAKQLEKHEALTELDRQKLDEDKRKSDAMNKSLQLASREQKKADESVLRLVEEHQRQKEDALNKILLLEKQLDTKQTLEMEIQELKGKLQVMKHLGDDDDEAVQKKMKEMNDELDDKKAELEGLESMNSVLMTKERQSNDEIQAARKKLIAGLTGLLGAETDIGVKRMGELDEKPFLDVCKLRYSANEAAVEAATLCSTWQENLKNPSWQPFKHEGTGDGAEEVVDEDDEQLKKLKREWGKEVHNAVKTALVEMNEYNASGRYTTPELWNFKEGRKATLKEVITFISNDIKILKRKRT

T6: IDP2, yeast two-hybrid fusion (Arabidopsis thaliana) (UniProt F4JH53)
T6 sequence: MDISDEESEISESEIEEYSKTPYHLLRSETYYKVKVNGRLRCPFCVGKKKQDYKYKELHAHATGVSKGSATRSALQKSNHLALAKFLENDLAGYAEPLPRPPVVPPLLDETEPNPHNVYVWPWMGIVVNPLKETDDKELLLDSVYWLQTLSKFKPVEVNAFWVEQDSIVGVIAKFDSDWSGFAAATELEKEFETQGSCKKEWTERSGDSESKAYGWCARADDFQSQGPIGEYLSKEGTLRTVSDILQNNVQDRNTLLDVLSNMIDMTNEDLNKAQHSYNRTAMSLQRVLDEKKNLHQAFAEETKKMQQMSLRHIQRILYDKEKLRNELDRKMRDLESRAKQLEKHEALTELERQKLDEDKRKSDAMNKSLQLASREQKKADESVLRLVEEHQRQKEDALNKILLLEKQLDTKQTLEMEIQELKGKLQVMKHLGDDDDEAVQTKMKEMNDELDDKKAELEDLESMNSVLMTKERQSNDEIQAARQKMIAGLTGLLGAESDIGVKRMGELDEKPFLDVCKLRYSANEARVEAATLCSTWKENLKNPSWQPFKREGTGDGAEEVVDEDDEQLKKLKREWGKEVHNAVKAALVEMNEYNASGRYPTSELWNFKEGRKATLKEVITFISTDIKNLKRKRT


Key:
[1] = target: T1, IDN2-6xMyc (Arabidopsis thaliana); assay: co-IP; affinity purification with the Myc antibody from extracts of IDN2-6xMyc transgenic plants in ros1idn2-4; co-purified proteins tested by western blotting with the endogenous DMS3 antibody
[2] = target: T2, IDN2, yeast two-hybrid fusion (Arabidopsis thaliana); assay: two-hybrid; pGADT7 and pGBKT7 constructs co-transformed into yeast strain PJ694a; spot assay on SD-trp-leu-his with 5 mM to 20 mM 3-AT; HIS reporter
[3] = target: T3, IDN2E600Q, yeast two-hybrid bait (Arabidopsis thaliana); assay: as above
[4] = target: T4, IDN2W616A, yeast two-hybrid bait (Arabidopsis thaliana); assay: as above
[5] = target: T5, IDP1, yeast two-hybrid fusion (Arabidopsis thaliana); assay: as above
[6] = target: T6, IDP2, yeast two-hybrid fusion (Arabidopsis thaliana); assay: as above

binding [1]	binding [2]	binding [3]	binding [4]	binding [5]	binding [6]	Molecule
no binding						DMS3 (… IN MERISTEM … 3), endogenous (from UniProt Q94A79 1-420)
	binds	binds	binds	binds	binds	IDN2, yeast two-hybrid fusion (protein, UniProt Q8VZ79 1-647) MGSTVILSSDDEDSDISESEMDEYGDKMYLNLKGGKLKVRLSPQAFICPYCPNKKKTSFQYKDLLQHASGVGNSNSDKRSAKEKASHLALVKYLQQDLADSASEAEPSSKRQKNGNPIQDCDHDEKLVYPWKGIVVNIPTTKAQDGRSAGESGSKLRDEYILRGFNPTRVRPLWNYLGHSGTAIVEFNKDWNGLHNGLLFDKAYTVDGHGKKDWLKKDGPKLGLYGWIARADDYNGNNIIGENLRKTGDLKTIAELTEEEARKQELLVQNLRQLVEEKKKDMKEIEELCSVKSEELNQLMEEKEKNQQKHYRELNAIQERTMSHIQKIVDDHEKLKRLLESERKKLEIKCNELAKREVHNGTERMKLSEDLEQNASKNSSLELAAMEQQKADEEVKKLAEDQRRQKEELHEKIIRLERQRDQKQAIELEVEQLKGQLNVMKHMASDGDAEVVKEVDIIFKDLGEKEAQLADLDKFNQTLILRERRTNDELQEAHKELVNIMKEWNTNIGVKRMGELVTKPFVDAMQQKYCQQDVEDRAVEVLQLWEHYLKDSDWHPFKRVKLENEDREVEVIDDRDEKLRELKADLGDGPYNAVTKALLEINEYNPSGRYITTELWNFKADKKATLEEGVTCLLDQWEKAKRKRGMA
	binds		binds	no binding	no binding	IDP1, yeast two-hybrid fusion (protein, UniProt Q9S9P3 1-634) MSISDEEAEISESEIEDYSETPYRLLRDGTYKVKVNGQLRCPFCAGKKKQDYKYKELYAHATGVSKGSATRSALQKANHLALAMFLENELAGYAEPVPRPPVVPPQLDETEPNPHNVYVWPWMGIVVNPLKEADDKELLLDSAYWLQTLSKFKPIEVNAFWVEQDSIVGVIAKFNGDWSGFAGATELEKEFETQGSSKKEWTERSGDSESKAYGWCARADDFESQGPIGEYLSKEGQLRTVSDISQKNVQDRNTVLEELSDMIAMTNEDLNKVQYSYNRTAMSLQRVLDEKKNLHQAFADETKKMQQMSLRHIQKILYDKEKLSNELDRKMRDLESRAKQLEKHEALTELDRQKLDEDKRKSDAMNKSLQLASREQKKADESVLRLVEEHQRQKEDALNKILLLEKQLDTKQTLEMEIQELKGKLQVMKHLGDDDDEAVQKKMKEMNDELDDKKAELEGLESMNSVLMTKERQSNDEIQAARKKLIAGLTGLLGAETDIGVKRMGELDEKPFLDVCKLRYSANEAAVEAATLCSTWQENLKNPSWQPFKHEGTGDGAEEVVDEDDEQLKKLKREWGKEVHNAVKTALVEMNEYNASGRYTTPELWNFKEGRKATLKEVITFISNDIKILKRKRT
	binds		binds		no binding	IDP2, yeast two-hybrid fusion (protein, UniProt F4JH53 1-635) MDISDEESEISESEIEEYSKTPYHLLRSETYYKVKVNGRLRCPFCVGKKKQDYKYKELHAHATGVSKGSATRSALQKSNHLALAKFLENDLAGYAEPLPRPPVVPPLLDETEPNPHNVYVWPWMGIVVNPLKETDDKELLLDSVYWLQTLSKFKPVEVNAFWVEQDSIVGVIAKFDSDWSGFAAATELEKEFETQGSCKKEWTERSGDSESKAYGWCARADDFQSQGPIGEYLSKEGTLRTVSDILQNNVQDRNTLLDVLSNMIDMTNEDLNKAQHSYNRTAMSLQRVLDEKKNLHQAFAEETKKMQQMSLRHIQRILYDKEKLRNELDRKMRDLESRAKQLEKHEALTELERQKLDEDKRKSDAMNKSLQLASREQKKADESVLRLVEEHQRQKEDALNKILLLEKQLDTKQTLEMEIQELKGKLQVMKHLGDDDDEAVQTKMKEMNDELDDKKAELEDLESMNSVLMTKERQSNDEIQAARQKMIAGLTGLLGAESDIGVKRMGELDEKPFLDVCKLRYSANEARVEAATLCSTWKENLKNPSWQPFKREGTGDGAEEVVDEDDEQLKKLKREWGKEVHNAVKAALVEMNEYNASGRYPTSELWNFKEGRKATLKEVITFISTDIKNLKRKRT

— paper PMC3342958, “IDN2 and Its Paralogs Form a Complex Required for RNA–Directed DNA Methylation”
